The record followed here is the supplement of paper PMC11741623.

B1: FABP6, P51161 (protein)
chain: MAFTGKFEMESEKNYDEFMKLLGISSDVIEKARNFKIVTEVQQDGQDFTWSQHYSGGHTMTNKFTVGKESNIQTMGGKTFKATVQMEGGKLVVNFPNYHQTSEIVGDKLVEVSTIGGVTYERVSKRLA
B2: SEC16B, Q96JE7 (protein)
chain: MELWAPQRLPQTRGKATAPSKDPDRGFRRDGHHRPVPHSWHNGERFHQWQDNRGSPQPQQEPRADHQQQPHYASRPGDWHQPVSGVDYYEGGYRNQLYSRPGYENSYQSYQSPTMREEYAYGSYYYHGHPQWLQEERVPRQRSPYIWHEDYREQKYLDEHHYENQHSPFGTNSETHFQSNSRNPCKDSPASNSGQEWPGELFPGSLLAEAQKNKPSLASESNLLQQRESGLSSSSYELSQYIRDAPERDDPPASAAWSPVQADVSSAGPKAPMKFYIPHVPVSFGPGGQLVHVGPSSPTDGQAALVELHSMEVILNDSEEQEEMRSFSGPLIREDVHKVDIMTFCQQKAAQSCKSETLGSRDSALLWQLLVLLCRQNGSMVGSDIAELLMQDCKKLEKYKRQPPVANLINLTDEDWPVLSSGTPNLLTGEIPPSVETPAQIVEKFTRLLYYGRKKEALEWAMKNHLWGHALFLSSKMDPQTYSWVMSGFTSTLALNDPLQTLFQLMSGRIPQAATCCGEKQWGDWRPHLAVILSNQAGDPELYQRAIVAIGDTLAGKGLVEAAHFCYLMAHVPFGHYTVKTDHLVLLGSSHSQEFLKFATTEAIQRTEIFEYCQMLGRPKSFIPSFQVYKLLYASRLADYGLVSQALHYCEAIGAAVLSQGESSHPVLLVELIKLAEKLKLSDPLVLERRSGDRDLEPDWLAQLRRQLEQKVAGDIGDPHPTRSDISGAGGTTTENTFYQDFSGCQGYSEAPGYRSALWLTPEQTCLLQPSPQQPFPLQPGSYPAGGGAGQTGTPRPFYSVPETHLPGTGSSVAVTEATGGTVWEEMLQTHLGPGENTVSQETSQPPDGQEVISKPQTPLAARPRSISESSASSAKEDEKESSDEADKNSPRNTAQRGKLGDGKEHTKSSGFGWFSWFRSKPTKNASPAGDEDSSDSPDSEETPRASSPHQAGLGLSLTPSPESPPLPDVSAFSRGRGGGEGRGSASSGGAAAGAGVGGLSGPESVSFELCSNPGVLLPPPALKGAVPLYNPSQVPQLPTATSLNRPNRLAQRRYPTQPC
B3: SH3RF2, Q8TEC5 (protein)
chain: MDDLTLLDLLECPVCFEKLDVTAKVLPCQHTFCKPCLQRVFKAHKELRCPECRTPVFSNIEALPANLLLVRLLDGVRSGQSSGRGGSFRRPGTMTLQDGRKSRTNPRRLQASPFRLVPNVRIHMDGVPRAKALCNYRGQNPGDLRFNKGDIILLRRQLDENWYQGEINGISGNFPASSVEVIKQLPQPPPLCRALYNFDLRGKDKSENQDCLTFLKDDIITVISRVDENWAEGKLGDKVGIFPILFVEPNLTARHLLEKNKGRQSSRTKNLSLVSSSSRGNTSTLRRGPGSRRKVPGQFSITTALNTLNRMVHSPSGRHMVEISTPVLISSSNPSVITQPMEKADVPSSCVGQVSTYHPAPVSPGHSTAVVSLPGSQQHLSANMFVALHSYSAHGPDELDLQKGEGVRVLGKCQDGWLRGVSLVTGRVGIFPNNYVIPIFRKTSSFPDSRSPGLYTTWTLSTSSVSSQGSISEGDPRQSRPFKSVFVPTAIVNPVRSTAGPGTLGQGSLRKGRSSMRKNGSLQRPLQSGIPTLVVGSLRRSPTMVLRPQQFQFYQPQGIPSSPSAVVVEMGSKPALTGEPALTCISRGSEAWIHSAASSLIMEDKEIPIKSEPLPKPPASAPPSILVKPENSRNGIEKQVKTVRFQNYSPPPTKHYTSHPTSGKPEQPATLKASQPEAASLGPEMTVLFAHRSGCHSGQQTDLRRKSALGKATTLVSTASGTQTVFPSK
B4: TREML1, Q86YW5 (protein)
chain: MGLTLLLLLLLGLEGQGIVGSLPEVLQAPVGSSILVQCHYRLQDVKAQKVWCRFLPEGCQPLVSSAVDRRAPAGRRTFLTDLGGGLLQVEMVTLQEEDAGEYGCMVDGARGPQILHRVSLNILPPEEEEETHKIGSLAENAFSDPAGSANPLEPSQDEKSIPLIWGAVLLVGLLVAAVVLFAVMAKRKQGNRLGVCGRFLSSRVSGMNPSSVVHHVSDSGPAAELPLDVPHIRLDSPPSFDNTTYTSLPLDSPSGKPSLPAPSSLPPLPPKVLVCSKPVTYATVIFPGGNKGGGTSCGPAQNPPNNQTPSS

The list shows a part of the results. Interaction screen of human proteins with wild-type SARS-CoV-2 proteins by split-DHFR complementation in yeast, 1 µg/mL methotrexate. Value = fitness of the pair (three or more lineages) minus that of the viral protein without a human partner, on a scale set by negative (0) and fused positive (1) controls, mean of up to three cultures; higher = more likely to interact. Active = false discovery rate below 0.05 (one-sided t-test) in at least one culture. Nearly all pairs are not hits, and differences among them are mostly noise (correlation between cultures about 0.3); most hits were seen in one culture only. Human sequences are the Swiss-Prot entries looked up by gene name; the clone may be another isoform. NSP2 values were corrected by the authors for a growth advantage. Listed are human proteins with a hit and a random twelfth of the others.

The target of the first assay is SARS-CoV-2 E. The experiment in a line: yeast fitness gain over the viral ORF with no human partner (scaled fitness); higher = more likely to interact. Here is the method:
(§1)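 Split mouse DHFR complementation in pooled diploid yeast: human ORFeome clones carry one fragment and viral ORFs the other; barcoded lineages compete in 1 µg/mL methotrexate and fitness is read by barcode sequencing in up to three cultures.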
For B1, the yeast fitness gain was inactive: -0.00506.
As for B2, the yeast fitness gain is inactive: -0.0275.
For B3, the yeast fitness gain was inactive: -0.0311.
In the case of B4, the yeast fitness gain is inactive: -0.0981.

The target in the next assay is SARS-CoV-2 M. The description is as above. As for the experimental part: as §1
As to B1, the yeast fitness gain was inactive: 0.0699.
Take B2: the yeast fitness gain is inactive: -0.0301.
Consider B4, for which the yeast fitness gain is inactive: -0.0105.

Another assay deals with SARS-CoV-2 N. The description is as above. As for the experimental part: as §1
For B1, the yeast fitness gain is inactive: 0.0023.
Regarding B2, the yeast fitness gain was inactive: 0.0894.
Regarding B3, the yeast fitness gain is inactive: 0.00414.
In the case of B4, the yeast fitness gain was inactive: 0.0773.

For another assay, the target named is SARS-CoV-2 NSP1. The description is as above. Here is the method: as §1
Regarding B1, the yeast fitness gain is inactive: -0.0066.
In the case of B2, the yeast fitness gain is inactive: 0.0666.
On to B4, for which the yeast fitness gain was inactive: 0.0136.

For another assay, the target named is SARS-CoV-2 NSP10. The assay is described as above. As for the experimental part: as §1
For the molecule B1, the yeast fitness gain was inactive: 0.049.
For the molecule B2, the yeast fitness gain was inactive: 0.0282.
In the case of B4, the yeast fitness gain is inactive: 0.0235.

Another assay concerns the target SARS-CoV-2 NSP12. The description is as above. Here is the method: as §1
Regarding B1, the yeast fitness gain is inactive: 0.0342.
Take B2: the yeast fitness gain is inactive: 0.0142.
Turning to B4, the yeast fitness gain was inactive: 0.00755.

A further assay concerns the target SARS-CoV-2 NSP13. The description is as above. As for the experimental part:
as §1
On to B1, for which the yeast fitness gain was inactive: 0.0107.
With B2, the yeast fitness gain is inactive: -0.0384.
As to B4, the yeast fitness gain was inactive: -0.0145.

For a further assay, the target named is SARS-CoV-2 NSP14. Described as above. As for the experimental part: as §1
B1: the yeast fitness gain is inactive: 0.134.
With B2, the yeast fitness gain was inactive: -0.117.
For the molecule B3, the yeast fitness gain was inactive: -0.0271.

For the next assay, the target named is SARS-CoV-2 NSP15. The assay is described as above. As for the experimental part:
as §1
Regarding B1, the yeast fitness gain was inactive: 0.0448.
On the same count and under the same terms, as for B2, the figure is inactive: 0.0864; as for B4, inactive: -0.0579.

Another assay has as its target SARS-CoV-2 NSP16. Described as above. Here is the method:
as §1
For the molecule B1, the yeast fitness gain is inactive: 0.0312.
Turning to B2, the yeast fitness gain is inactive: 0.0521.
As for B4, the yeast fitness gain was inactive: 0.022.

Another assay concerns the target SARS-CoV-2 NSP2. Described as above. As for the experimental part: as §1
Turning to B1, the yeast fitness gain was active: 0.322.
Take B2: the yeast fitness gain was inactive: -0.0735.
Still for that read-out and setting: under B4 stands inactive: -0.108.

The target of the next assay is SARS-CoV-2 NSP4. Described as above. Here is the method: as §1
B1: the yeast fitness gain was inactive: -0.0163.
For the molecule B4, the yeast fitness gain is inactive: -0.173.

Another assay deals with SARS-CoV-2 NSP5. Described as above. Here is the method:
as §1
B1: the yeast fitness gain was inactive: 0.00767.
Regarding B2, the yeast fitness gain is inactive: 0.00322.
As to B3, the yeast fitness gain is inactive: 0.0304.
Turning to B4, the yeast fitness gain was inactive: -0.0164.

The target in another assay is SARS-CoV-2 NSP6. The description is as above. Here is the method:
as §1
For the molecule B1, the yeast fitness gain is inactive: 0.0196.
Regarding B2, the yeast fitness gain is inactive: -0.0747.
For the molecule B4, the yeast fitness gain is inactive: 0.0796.

Another assay has as its target SARS-CoV-2 NSP7. The description is as above. Here is the method: as §1
As for B1, the yeast fitness gain was inactive: -0.0127.
Consider B2, for which the yeast fitness gain was inactive: 0.0036.
For the molecule B4, the yeast fitness gain was inactive: 0.111.

Another assay has as its target SARS-CoV-2 NSP8. Described as above. As for the experimental part: as §1
Turning to B1, the yeast fitness gain is inactive: 0.00582.
As to B2, the yeast fitness gain is inactive: 0.0612.
Still for that read-out and setting: under B4 stands inactive: 0.0507.

The next assay has as its target SARS-CoV-2 NSP9. The description is as above. As for the experimental part:
as §1
B1: the yeast fitness gain is inactive: 0.0463.
As to B2, the yeast fitness gain is inactive: -0.00543.
For the molecule B4, the yeast fitness gain is inactive: -0.112.

The target of another assay is SARS-CoV-2 ORF10. Described as above. As for the experimental part: as §1
For the molecule B1, the yeast fitness gain is inactive: 0.00799.
Same read-out and setting: as for B2, the figure is inactive: -0.034; as for B4, inactive: 0.0721.

Another assay addresses SARS-CoV-2 ORF3A. The assay is described as above. Here is the method: as §1
As to B1, the yeast fitness gain was inactive: -0.0431.
Regarding B2, the yeast fitness gain is inactive: 0.0692.
As for B3, the yeast fitness gain was inactive: -0.0373.
The same measure, in the same setting: as for B4, the figure is inactive: -0.137.

The target of the next assay is SARS-CoV-2 ORF3B. The description is as above. Here is the method: as §1
With B1, the yeast fitness gain was inactive: -0.00982.
Regarding B2, the yeast fitness gain is inactive: -0.0506.
Regarding B4, the yeast fitness gain was inactive: 0.0579.

In another assay the target is SARS-CoV-2 ORF6. The description is as above. As for the experimental part: as §1
As for B1, the yeast fitness gain is inactive: -0.00294.
On to B2, for which the yeast fitness gain was inactive: 0.017.
As for B4, the yeast fitness gain is inactive: 0.0277.

Another assay deals with SARS-CoV-2 ORF7A. Described as above. As for the experimental part: as §1
Take B1: the yeast fitness gain is inactive: -0.116.
Same read-out and setting: under B2 stands inactive: 0.019; under B4, inactive: 0.000413.

The next assay deals with SARS-CoV-2 ORF7B. Described as above. As for the experimental part:
as §1
As for B1, the yeast fitness gain is inactive: -0.0979.
As for B2, the yeast fitness gain was inactive: -0.00665.
As for B4, the yeast fitness gain is inactive: -0.0341.

Another assay addresses SARS-CoV-2 ORF8. Described as above. Here is the method:
as §1
As to B1, the yeast fitness gain is inactive: 0.01.
The same measure, in the same setting: under B2 stands inactive: -0.00223; under B4, inactive: 0.0264.

A further assay deals with SARS-CoV-2 ORF9B. The description is as above. As for the experimental part: as §1
Turning to B1, the yeast fitness gain was inactive: 0.0262.
For the molecule B2, the yeast fitness gain is inactive: -0.00592.
Still for that read-out and setting: as for B4, the figure is inactive: -0.000499.

In the next assay the target is SARS-CoV-2 ORF9Bwu (the 73-codon ORF). The assay is described as above. As for the experimental part: as §1
B1: the yeast fitness gain is inactive: 0.0516.
Take B2: the yeast fitness gain was inactive: 0.0658.
For B4, the yeast fitness gain is inactive: -0.00657.

In the next assay the target is SARS-CoV-2 S. The description is as above. As for the experimental part:
as §1
On to B1, for which the yeast fitness gain was inactive: 0.0699.
The same measure, in the same setting: under B2 stands inactive: 0.0404; under B4, inactive: 0.0642.
